Measurements published in PubChem BioAssay AID463173 (ICCB-Longwood Screening Facility, Harvard Medical School, 2010).
About 1,700 (3.3%) of roughly 52,000 compounds were called active. Cut-off read from the data, not from the text of the source: active = survival mostly below about 52% (no sharp cut-off); inactive = mostly above about 56%. Some of the results follow.

What follows are molecules tested on Wild type (assay: S. aureus survival, RN4220 and DeltatarO strains – OD600, teichoic acid synthesis inhibitors, primary screen (AID 463173)). Conditions: S. aureus RN4220 wild type/DeltatarO growth, OD600, 18 h, hits give low values, screened at 18.75 µg/mL (by protocol).

| Structure (SMILES) | survival |
| --- | --- |
| O=C(NCc1cccc(Cl)c1)c1c2c(nc3ccccc13)C(=O)N(C1CCCCC1)C2 | inactive: 148% |
| CC1CN(C(=O)N2CCC(C(=O)NCCCc3ccccc3)CC2)c2cc(Cl)ccc2O1 (stereo not drawn) | inactive: 84% |
| CCCn1cc(S(=O)(=O)c2ccc(C)cc2)c(=O)c2cc(F)c(N3CCCC3)cc21 | inactive: 99% |
| COc1cc(NC(=O)c2ccc(C)c(Cl)c2)ccc1NC(=O)c1cc2ccccc2o1 | inactive: 78% |
| CCOc1ccccc1Nc1ncnc2c1cnn2-c1ccc(C)cc1 | inactive: 76% |
| Cc1ccc(CNC(=O)CSc2ncc3c(n2)-c2cc(Cl)ccc2N(C)S3(=O)=O)cc1 | inactive: 88% |
| Cc1c(C(=O)NCc2ccc(Cl)cc2)oc2ccc3c(c12)C(=O)CC(C)(C)O3 | inactive: 76% |
| CCCCOc1ccc(CNC(=O)c2cccc(NC(=O)N3CCSc4ncccc43)c2)cc1 | inactive: 71% |
| CCCCNC(=O)C1CCCN(S(=O)(=O)CCC)C1 (stereo not drawn) | inactive: 84% |
| CCc1nn(CC(=O)NC2CC2)c(=O)c2cc3c(OC)cccc3n12 | inactive: 84% |
| O=C(CCc1nc(CN2CCN(S(=O)(=O)c3ccc(Br)cc3)CC2)no1)N1CCCCC1 | inactive: 84% |
| CCOc1ccccc1C1CC(=O)Nc2c1c(=O)n(C)c1ncnn21 (stereo not drawn) | inactive: 142% |
| COc1cc2c(cc1OC)C(c1cc3cc4c(cc3[nH]c1=O)OCO4)N(C(=O)c1ccco1)CC2 (stereo not drawn) | inactive: 113% |
| COc1ccc(-n2ncc3c(NCCCOC(C)C)ncnc32)cc1 | active: -2% |
| COc1cccc(Cn2cc(C(=O)c3ccccc3)c(=O)c3cc4c(cc32)OCO4)c1 | inactive: 84% |
| COc1cc2cc(CNc3ccccc3)c(=O)n(CC(=O)Nc3cccc(Cl)c3C)c2cc1OC | inactive: 22% |
| COc1cc(NC(=O)Cn2c(=O)n(CC3CCC(C(=O)NCCc4ccccc4)CC3)c(=O)c3ccccc32)cc(OC)c1 (stereo not drawn) | inactive: 153% |
| CCc1ccc(C(=O)c2cn(CC(=O)Nc3ccc4c(c3)OCCO4)c3ccc(F)cc3c2=O)cc1 | inactive: 89% |
| Cc1ccc(NCc2cccn2-c2nnc(N3CCC(C(=O)NCCc4ccc(Cl)cc4)CC3)s2)cc1 | inactive: 79% |
| COc1c(O)cccc1-c1nnn(CCC(=O)OCC(=O)c2ccccc2)n1 | inactive: 98% |
| CCc1nn2c(=O)cc(COC(=O)c3cccc(NC(=O)CCc4ccccc4)c3)nc2s1 | inactive: 72% |
| COc1ccc(-n2c(C)nc3c(cnn3-c3ccc(F)cc3)c2=O)cc1 | inactive: 78% |
| CCCCN(CC)CCCNC(=O)c1c(C)oc2ncnc(N3CCOCC3)c12 | active: 14% |
| CCn1cc(/C=C(\NC(=O)c2ccc(OC)cc2)C(=O)NCCCn2ccnc2)c2ccccc21 | inactive: 100% |
| COc1ccccc1CNC(=O)C1CCN(c2nc3ccc(Cl)cc3[nH]2)CC1 | inactive: 19% |
| CCCCc1ccc(-n2nc3cc(C)c(NC(=O)c4ccc(C#N)cc4F)cc3n2)cc1 | inactive: 73% |
| COc1cc2c(=O)n(CCC(=O)NCC3CCCO3)c(=O)n(CC(=O)Nc3ccccc3C)c2cc1OC (stereo not drawn) | inactive: 106% |
| CCc1nn(CC(=O)NCCc2ccc(OC)cc2OC)c(=O)c2cc3occc3n12 | inactive: 81% |
